According to PubChem BioAssay AID485294 (National Center for Advancing Translational Sciences (NCATS), 2010):
Out of some 370,000 compounds screened, about 150 (0.041%) were called active. Inconclusive means that the source gave no clear call. Such entries were picked first, then a sample of the others. The call rests on the fitted dose curve; in most records, active means well fitted inhibition curve with a large enough effect; inconclusive means small, poorly fitted or top-dose-only effect; inactive means flat fitted curve, though single readings scatter. No potency is given beside an inconclusive call; the fits are too rough.
Further: nearly all actives have a fitted effect of over 25% in size.
Potency means the concentration at half of the fitted maximal effect; tags describe the fitted curve by direction and shape.

Each compound was assayed against Beta-lactamase (Escherichia coli (strain K12)) (UniProt P00811) (assay: qHTS Inhibitors of AmpC Beta-Lactamase (assay with detergent)). Details: AmpC hydrolysis of nitrocefin, absorbance 480 nm, 0.01% Triton; series mostly up to 114 µM.
Chain of UniProt P00811 (P00811 whole entry, looked up): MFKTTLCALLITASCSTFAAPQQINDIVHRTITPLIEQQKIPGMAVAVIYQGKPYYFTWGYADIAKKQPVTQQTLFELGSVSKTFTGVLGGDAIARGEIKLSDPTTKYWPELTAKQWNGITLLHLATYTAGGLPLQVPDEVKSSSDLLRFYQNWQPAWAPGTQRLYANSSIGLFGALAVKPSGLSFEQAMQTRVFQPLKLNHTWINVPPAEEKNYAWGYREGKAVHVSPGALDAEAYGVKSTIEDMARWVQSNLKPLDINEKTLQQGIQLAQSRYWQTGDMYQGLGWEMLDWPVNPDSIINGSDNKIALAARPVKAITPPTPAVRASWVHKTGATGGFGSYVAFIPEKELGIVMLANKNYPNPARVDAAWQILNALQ
Summary of the method: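 AmpC (5.3 nM in the dispensed reagent) in 20 mM phosphate pH 7.0 with 0.01% (detergent screen) or 0.0001% Triton X-100 was preincubated with compounds for 15 min at room temperature. Nitrocefin was then added from an 800 uM solution, and hydrolysis was followed at 480 nm.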
CC1CCCC(NC(=O)CN2C(=O)c3cccnc3Oc3ccc(Cl)cc32)C1C (configuration not stated) was tested, and the Potency was inconclusive [inhibitor, partial curve, poor fit].
With Cc1cc(F)ccc1NC(=S)NCCc1ccccc1 the Potency was inconclusive [inhibitor, full curve, poor fit].
In the case of Cc1ccc2c(c1)C(c1ccccc1)N(C(=O)c1cc3ccccc3oc1=O)CC(=O)N2 (configuration not stated), the Potency is reported as inconclusive [inhibitor, full curve, poor fit].
For CCn1ncc(/C=C/C(=O)Nc2c(C)nn(CC)c2C)c1C, the Potency was inconclusive [inhibitor, partial curve].
With O=C(CCc1nc(-c2ccccc2F)no1)NCCN1CCc2ccccc2C1 the Potency was inconclusive [inhibitor, partial curve].
For CCOC(=O)Cc1csc(NC(=O)CS(=O)(=O)Cc2ccccc2)n1, the Potency was inconclusive [inhibitor, single point].
In the case of O=C(Nc1ccc2c(c1)C(=O)OC2)c1ccc(Cl)cc1, the Potency is reported as inconclusive [inhibitor, full curve, poor fit].
In the case of O=C1CC(NS(=O)(=O)c2cc(F)ccc2F)CN1c1cccc(F)c1 (configuration not stated), the Potency is reported as inconclusive [inhibitor, full curve, poor fit].
With CCOC(=O)N1CCN(CCC(=O)Nc2cccc(Br)c2)CC1 the Potency was inconclusive [inhibitor, full curve].
Nc1cc(C(=O)N2CCCC2)cc(C(=O)N2CCCC2)c1 was tested, and the Potency was inconclusive [inhibitor, full curve].
O=C(Nc1ccccc1)Nc1sccc1-c1nc2ccccc2s1 was tested, and the Potency was “inactive”.
For Cc1ccc(C(c2sc3ncnn3c2O)N2CCCCC2)cc1 (configuration not stated), the Potency was inconclusive [inhibitor, full curve].
For O=C(COc1ccc(S(=O)(=O)NC2CCCCC2)cc1Cl)NCC1CCCO1 (configuration not stated), the Potency was inconclusive [inhibitor, single point].
O=C(NNC(=S)NC1CCCCC1)c1sc2ccccc2c1Cl was tested, and the Potency was inconclusive [inhibitor, full curve, poor fit].
With COC(=O)C1=C(N)Oc2c(c(=O)oc3ccccc23)[C@]12C(=O)N(C)c1ccccc12 the Potency was inconclusive [inhibitor, full curve, poor fit].
For Cc1nc(C(C)NC(=O)c2cc(COc3ccc(C)c(C)c3)on2)c(C)s1 (configuration not stated), the Potency was “inactive”.
In the case of Cc1c(C(=O)Nc2cccc([N+](=O)[O-])c2)csc1-c1ccccc1, the Potency is reported as “inactive”.
In the case of CC(Oc1cccc(Cl)c1)C(=O)Nc1cc(S(=O)(=O)N2CCOCC2)ccc1N1CCCC1 (configuration not stated), the Potency is reported as inconclusive [inhibitor, single point].
For Cc1cc(C(=O)Nc2ccccc2)c(C)o1, the Potency was inconclusive [inhibitor, full curve].
With CC(=O)NCCc1c[nH]c2ccccc12 the Potency was inconclusive [inhibitor, full curve, poor fit].
In the case of Cc1ccc(OCCC(=O)OCC(=O)NCc2ccccc2)cc1, the Potency is reported as inconclusive [inhibitor, full curve, poor fit].
With CC(=O)Nc1ccccc1O the Potency was inconclusive [inhibitor, partial curve].
CCCCNC(=O)CCCn1c(=O)c2ccccc2n(Cc2ccccc2C)c1=O was tested, and the Potency was “inactive”.
With COc1cccc(NC(=S)NC(=O)/C=C/c2ccc(F)cc2)c1 the Potency was “inactive”.
In the case of Clc1cccc(-c2ccc(C=Nc3ccc(N4CCOCC4)cc3)o2)c1, the Potency is reported as inconclusive [inhibitor, full curve, poor fit].
For CCCC1(C(=O)OCC)NC(c2ccc(OC)cc2OC)C2C(=O)N(c3ccc4c(c3)OCCO4)C(=O)C21 (configuration not stated), the Potency was inconclusive [inhibitor, single point].
O=C(NC1CCCCCC1)c1ccc(CS(=O)Cc2ccccc2Cl)o1 (configuration not stated) was tested, and the Potency was “inactive”.
For CCc1ccc(CN(C(=O)c2cc3ccccc3oc2=O)C2CCS(=O)(=O)C2)cc1 (configuration not stated), the Potency was inconclusive [inhibitor, full curve, poor fit].
With Cc1ccc(CSc2cn(CC(=O)N3CCCCC3)c3ccccc23)cc1 the Potency was “inactive”.
CC(C1CC1)N(Cc1ccccc1)C(=O)NC(=O)c1cccc(F)c1 (configuration not stated) was tested, and the Potency was inconclusive [inhibitor, full curve, poor fit].
In the case of COc1ccccc1S(=O)(=O)Cc1ccc(C(=O)N2CCCC2)o1, the Potency is reported as inconclusive [inhibitor, partial curve].
For CCCCN(CC)CCCNC(=O)c1cc2c(-c3ccc(OC)c(OC)c3)nn(C)c2s1, the Potency was “inactive”.
For O=C(CN1C(=O)NC2(CCCCC2)C1=O)Nc1ccccc1Cl, the Potency was inconclusive [inhibitor, partial curve, poor fit].
For CC(OC(=O)/C=C/c1ccccc1)C(=O)N1CCc2ccccc21 (configuration not stated), the Potency was inconclusive [inhibitor, full curve].
In the case of O=C(NCCCCNC(=O)c1cccnc1)c1cccnc1, the Potency is reported as inconclusive [inhibitor, partial curve, poor fit].
For Cc1oc(-c2ccccc2)cc1C(=O)Nc1cccc(C(=O)O)c1, the Potency was inconclusive [inhibitor, single point].
For COC(=O)c1cc(Oc2ccc(C(=O)OC)cc2N)cc(C(=O)OC)c1, the Potency was inconclusive [inhibitor, single point].
For CCC(=O)N=c1sc2cc([N+](=O)[O-])ccc2n1CCOC, the Potency was inconclusive [inhibitor, partial curve].
Cc1ccc(S(=O)(=O)C(CNC(=O)C(C)C)c2cccs2)cc1 (configuration not stated) was tested, and the Potency was inconclusive [inhibitor, full curve].
COc1cc(CNCCO)cc(Br)c1OCc1ccccc1Cl was tested, and the Potency was “inactive”.
In the case of CCOC(=O)N1CCc2c(sc(NC(=O)C3=COCCO3)c2C(N)=O)C1, the Potency is reported as inconclusive [inhibitor, partial curve, poor fit].
With O=C(NCCNS(=O)(=O)c1ccccc1)N1CCOCC1 the Potency was inconclusive [inhibitor, single point].
